# Measurements reported in PMC3971408, “Inhibition of triosephosphate isomerase by phosphoenolpyruvate in the feedback-regulation of glycolysis” (Open Biology, 2014).
# B1: Native rabbit muscle triosephosphate isomerase (TPI) (enzyme)
# chain: not shown
# notes: Triosephosphate isomerase, rabbit muscle, native enzyme (EC 5.3.1.1); homodimer in the asymmetric unit; also called TIM; rabbit TPI; source: bought: Sigma (native rabbit muscle TPI), buffer exchanged on a HiTrap Desalting column
# Molecular target: the molecule itself
# Experiment: crystal structure; rabbit muscle TPI at 10 mg/ml with 5 mM PEP in 20 mM Tris pH 7.0, 150 mM NaCl, 5 mM MgCl2; sitting drop at 20°C, reservoir 0.1 M MES pH 6.5, 25% PEG 8000; homodimer in the asymmetric unit
protein,measurement,value
B1,stoichiometry N,2
